From PubChem BioAssay AID686978 (National Center for Advancing Translational Sciences (NCATS), 2013)
Hit rate of the full screen: of about 420,000 compounds, about 64,000 (15%) were called active. Inconclusive results, whose numbers are uncertain, are shown with a selection of clear calls. Calls come from the whole dose curve; as a rule, active = well fitted inhibition curve with a large enough effect; inconclusive = small, poorly fitted or top-dose-only effect; inactive = flat fitted curve, though single readings scatter. Potencies of inconclusive entries are left out as doubtful fits.
% is set by controls: 0 for no effect and ±100 for the full control effect; potency is the fitted concentration of half-maximal effect; tags give direction and shape of the fitted curve.

Assay: qHTS for Inhibitors of human tyrosyl-DNA phosphodiesterase 1 (TDP1): qHTS in cells in absence of CPT; note: nearly all actives have a fitted effect of over 55% in size
Settings: DT40 Tdp1-/- hTDP1 cells, no CPT, ATP luminescence, 48 h; activity change, negative = growth inhibition: at 46.2 µM (top of the series) unless noted
Method in brief: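 Luminescent ATP content (CellTiter-Glo) served as the growth readout. Knockout chicken DT40 cells expressing human TDP1 were exposed to compounds without camptothecin for a minimum 48 hr at 37 °C.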
With `O=S(=O)(c1cccnc1)N1CCN(c2nc(-c3cccs3)nc3ccccc23)CC1` the Potency was inconclusive [inhibitor, single point]. For `CC(C)CN(C(=O)c1cccc(S(=O)(=O)N2CCN(Cc3ccccc3)CC2)c1)C1CCS(=O)(=O)C1` (configuration not stated), the Potency was inconclusive [inhibitor, single point]. In the case of `CC(C)c1ccc(/C=C/C(=O)N2CCc3ccccc3C2)cc1`, the Potency is reported as inconclusive [inhibitor, partial curve]. With `COc1cccc(N2CC(NC(=O)c3cc(Cl)ccc3OC)CC2=O)c1` (configuration not stated) the Potency was active: 16.4 µM. For `COc1ccc(/C=C2\N=C(c3ccc(C)cc3)OC2=O)cc1`, the “activity change, negative = growth inhibition” value was inactive: -3.6%. For `C=CCOc1c(Br)cc(CNc2ccc(NC(=O)C(C)C)c(OC)c2)cc1OC`, the Potency was active: 18.4 µM. With `CCOC(=O)C1(Cc2ccccc2)CCN(Cc2ccc(C)s2)CC1` the Potency was active: 23.1 µM. In the case of `CCOC(=O)C1(Cc2ccccc2Cl)CCN(C(=O)c2cc(C)on2)CC1`, the Potency is reported as inconclusive [inhibitor, partial curve]. With `CCN(C[C@H]1N[C@@](Cc2ccccc2)(C(=O)OC)[C@H]2C(=O)N(C)C(=O)[C@@H]12)C(C)=O` the “activity change, negative = growth inhibition” value was inactive: 0.235%. With `COc1ccc(C(=O)c2sc(Nc3ccccc3)nc2N)cc1` the Potency was inconclusive [inhibitor, single point]. In the case of `COc1ccccc1C(=O)Nc1ccc(Br)c2cccnc12`, the activity change, negative = growth inhibition is reported as inconclusive: -30.8% [inhibitor]. For `COc1ccc(CN2CCOCC2)cc1OC`, the activity change, negative = growth inhibition was inconclusive: -9.94% [inhibitor]. In the case of `NC1(CO)COC(c2ccccc2)OC1` (configuration not stated), the “activity change, negative = growth inhibition” value is reported as inactive: -1.06%. In the case of `CC(C)(C)c1cc(C(=O)N/N=C/c2ccncc2)n[nH]1`, the activity change, negative = growth inhibition is reported as inconclusive: -34.6% [inhibitor]. With `O=C(Cc1ccccc1)NC(=S)Nc1ccc(N2CCCCC2)cc1` the Potency was active: 23.1 µM. For `CCN(CC)c1ccc(/C=N/Nc2ccccc2)c(O)c1`, the Potency was inconclusive [inhibitor, partial curve]. For `CC(=O)c1cccc(NC(=O)CN(c2cc(C)cc(C)c2)S(=O)(=O)c2c(C)noc2C)c1`, the Potency was active: 18.4 µM. In the case of `O=C(CN1C(=O)C2C3CCC(C3)C2C1=O)OCC(=O)c1ccc(Br)cc1` (configuration not stated), the “activity change, negative = growth inhibition” value is reported as inactive: -0.752%. In the case of `CCCC(=O)Nc1c(-c2cccc(C)c2)c(=O)c2ccccc2n1C`, the Potency is reported as inconclusive [inhibitor, partial curve]. In the case of `Cc1cc(Cl)c(OCCCN2CCCCC2)c(Br)c1`, the Potency is reported as inconclusive [inhibitor, single point]. For `C=CCSc1nc(C)c(CCC(C)C)c(=O)[nH]1`, the Potency was inconclusive [inhibitor, partial curve]. In the case of `CC(C)C[C@H]1CNC(=S)N1C[C@H]1CCCN1C[C@H](CC(C)C)N1C[C@H](Cc2ccccc2)N(CCc2ccccc2)C1=S`, the Potency is reported as active: 20.6 µM. With `CCOC(=O)c1cc(-c2ccccc2C)nn1CC1CC(c2cccnc2)=NO1` (configuration not stated) the Potency was inconclusive [inhibitor, single point]. For `COc1cc(C(=O)N2c3ccccc3CCC2C)cc(OC)c1OC` (configuration not stated), the Potency was active: 9.2 µM. For `CC1(C)CC(=O)C2=C(C1)OC(N)=C([N+](=O)[O-])C2c1cccs1` (configuration not stated), the “activity change, negative = growth inhibition” value was inactive: -13.4%. For `CN1CCC(N(C)C(=O)CCc2nc3ccccc3n2-c2ccccc2)CC1`, the “activity change, negative = growth inhibition” value was inactive: -15.7%. In the case of `COC(=O)C1=C(CSc2nc3ccccc3s2)NC(=O)NC1c1ccc(F)cc1` (configuration not stated), the Potency is reported as inconclusive [inhibitor, single point]. With `Cn1nc(C(C)(C)C)c([N+](=O)[O-])c1C(=O)Nc1cccc2ccccc12` the Potency was inconclusive [inhibitor, single point]. In the case of `COc1ccc(-c2onc(C)c2C)cc1S(=O)(=O)N(C)Cc1ccccc1`, the Potency is reported as active: 23.1 µM. With `COc1ccc(NC(=O)c2cc(-c3ccc(C)c(C)c3O)n[nH]2)cc1Cl` the Potency was inconclusive [inhibitor, single point]. With `CC(=O)c1cccc(-c2ccnc3c2CC(C(=O)Nc2ccc4c(c2)OCO4)O3)c1` (configuration not stated) the Potency was active: 2.31 µM. In the case of `CN(C)C(CNC(=O)CCc1nc2cc(Cl)ccc2n(Cc2ccccc2)c1=O)c1ccccc1` (configuration not stated), the Potency is reported as active: 16.4 µM. For `CS(=O)(=O)N(CC(=O)N1CCc2ccccc2C1)c1ccccc1F`, the “activity change, negative = growth inhibition” value was inactive: -4.49%. In the case of `Cc1cc(CNC(=O)COc2ccccc2)c2ccccc2n1`, the Potency is reported as inconclusive [inhibitor, partial curve]. In the case of `Nc1c(NCCC2=CCCCC2)c(=O)[nH]c(=O)n1Cc1ccccc1`, the Potency is reported as active: 6.51 µM. In the case of `COc1ccc(Cl)cc1NC(=O)c1c(NCc2cccnc2)sc2c1CCC(C)C2` (configuration not stated), the Potency is reported as active: 4.61 µM. With `Cc1ccc(Cl)cc1N1CCN(S(=O)(=O)c2ccc3c(c2)NC(=O)C(C)C(=O)N3)CC1` (configuration not stated) the Potency was inconclusive [inhibitor, single point]. With `CCCCN(C(=O)C1CCCC1)c1c(N)n(CC(C)C)c(=O)[nH]c1=O` the “activity change, negative = growth inhibition” value was inactive: 9.1%. With `O=C(NCc1ccc(F)cc1)c1cc2c(s1)CS(=O)(=O)C2` the “activity change, negative = growth inhibition” value was inactive: 3.54%. For `CCn1c(=S)sc2c(=O)n(CC(=O)Nc3ccccc3C(F)(F)F)c(C)nc21`, the Potency was inconclusive [inhibitor, partial curve]. In the case of `CCOC(=O)CN(C(=O)CNC(=O)c1ccco1)C(C(=O)NC1CCCCC1)c1cccs1` (configuration not stated), the activity change, negative = growth inhibition is reported as inconclusive: -31% [inhibitor]. In the case of `CCCC1NC(C(=O)O)Cc2c1[nH]c1ccccc21` (configuration not stated), the Potency is reported as inconclusive [inhibitor, single point]. In the case of `COc1ccccc1NC(=O)C1=C(C)Nc2c(C(=O)Nc3cccc(C)c3)cnn2C1c1ccccc1Cl` (configuration not stated), the Potency is reported as inconclusive [inhibitor, single point]. For `Cc1ccccc1C(=O)O/N=C/c1c(N2CCOCC2)n(C)c2ccccc12`, the Potency was active: 1.3 µM. With `CCCCNC(=O)C1C(c2ccc(OC)cc2)=Nc2ccccc2N1C(=O)c1ccc2ncccc2c1` (configuration not stated) the Potency was inconclusive [inhibitor, full curve]. With `O=C(NCCO)c1cccc(-c2cccc3nncn23)c1` the “activity change, negative = growth inhibition” value was inactive: -13.3%. For `O=C(NCCCN1CCCC1=O)c1ccc(S(=O)(=O)Nc2cccc(C(F)(F)F)c2)cc1`, the Potency was active: 20.6 µM.
